This is an account of results in patent US20230416360A1 (SIMCERE ZAIMING PHARMACEUTICAL, published 2023).

B1: S002-NB151-66 VHH-Fc (Fc fusion)
chain: QVQLVESGGGLVQAGGSLRLACAASGDTVSIYYMGWFRQAPGKEREFVGALSASGQFTDHADSVKGRFTISRDDAQNTVFLHMNDLKPEDTAVYYCAVQRYGWVYRTDKTMYNYWGQGTQVTVSS[human IgG1 Fc with changes cut from this listing]
notes: VHH cloned into vector BI3.4-huIgG1 (hinge and human IgG1 Fc), made in HEK293E
B2: S002-NB151-23 VHH-Fc (Fc fusion)
chain: QVQLVESGGGLVQAGGSLTVSCTNSGRTLSTSTIAWFRQKPGKDSEFVAAIRWSGGMGWYADSVKGRFTISRDNAENTVSLQMNTLQPEDTAVYFCAVSTVPYYGSIYTRVGDYPYWGQGTQVTVSS[human IgG1 Fc with changes cut from this listing]
notes: VHH cloned into vector BI3.4-huIgG1 (hinge and human IgG1 Fc), made in HEK293E; also called 5002-NB151-23
B3: S002-NB151-14 VHH-Fc (Fc fusion)
chain: QVQLVESGGGLVQAGGSLRLSCTTSGGTLSRITMGWFRQAPGKEREFVAAIKWGGSSTPYSDSVKGRFTISRDNAKNTVYLQMDRLVPEDTAVYYCAGGLRGPYSDSVTSSVQYNYWGQGTQVTVSS[human IgG1 Fc with changes cut from this listing]
notes: VHH cloned into vector BI3.4-huIgG1 (hinge and human IgG1 Fc), made in HEK293E; also called 5002-NB151-14
B4: S002-NB150-2 VHH-Fc (Fc fusion)
chain: QVQLVESGGGLVQPGGSLRLSCAASGSWFNIAMGWFRQAPGKEREFVAGIRWSDSKTYYADSVKGRFTISGDNAKNTTYLQMNSLKPEDTAVYYCAAQRYYRGSYNRQTNYDHWGQGTQVTVSS[human IgG1 Fc with changes cut from this listing]
notes: VHH cloned into vector BI3.4-huIgG1 (hinge and human IgG1 Fc), made in HEK293E; also called 5002-NB150-2
B5: S002-NB150-40 VHH-Fc (Fc fusion)
chain: QVQLVESGGGLVQDGGSLRLSCAASGLTFSFYNMGWFRQAPGKEREFVAAISQSGLSTHYADSMKGRFTISRDNAKNTVYLQMNSLNPVDTAAYYCAAGRRGYLASTTNDYEYWGQGTQVTVSS[human IgG1 Fc with changes cut from this listing]
notes: VHH cloned into vector BI3.4-huIgG1 (hinge and human IgG1 Fc), made in HEK293E; also called 5002-NB150-40
B6: S002-NB151-82 VHH-Fc (Fc fusion)
chain: EVQVVESGGGLVQAGDSLRLSCTTSGRTFYGDYIAWFRQAPGKEREFVAAIAVRGRGTFYGDSVKGRFTISRDNAENTLSLQMNSLKPEDTAVYYCAADAGSYASRGFPVRETGRYDYWGQGTQVTVSS[human IgG1 Fc with changes cut from this listing]
notes: VHH cloned into vector BI3.4-huIgG1 (hinge and human IgG1 Fc), made in HEK293E; also called 5002-NB151-82
B7: S002-NB150-5 VHH-Fc (Fc fusion)
chain: QLQLVESGGGLVQAGGSLRLSCVGSGDRVSIALMGWFRQAPGKEREFVAAISPSGGRITYSDSVKGRFTISRDNAKNTVYLQMNSLKRDDTAVYVCAANFRGYLSSSRGSDYAYWGQGTQVTVSS[human IgG1 Fc with changes cut from this listing]
notes: VHH cloned into vector BI3.4-huIgG1 (hinge and human IgG1 Fc), made in HEK293E; also called 5002-NB150-5
B8: S002-NB151-30 VHH-Fc (Fc fusion)
chain: QVQLVESGGGLVQAGGSLRLSCAASGRASGSGAMGWFRQAPGQERRFVAGIEWSSGGPVYADSVKGRFTLSRDNAKNTVHLQMNSLKPEDTAVYYCAAAPWVFSSPDDYMYWGQGTQVTVSS[human IgG1 Fc with changes cut from this listing]
notes: VHH cloned into vector BI3.4-huIgG1 (hinge and human IgG1 Fc), made in HEK293E; also called 5002-NB151-30
B9: S002-NB151-2 VHH-Fc (Fc fusion)
chain: QVQLVESGGGLVQAGDSLRLSCAASGRTFSPSTMAWFRQAPGKERELVARIGWTYGDTYYVDSAKGRFTISMDNVKNTVYLQMNSLKPEDTAVYYCAALFRGGLSYNFSNRGTQVTVSS[human IgG1 Fc with changes cut from this listing]
notes: VHH cloned into vector BI3.4-huIgG1 (hinge and human IgG1 Fc), made in HEK293E; also called 5002-NB151-2
B10: S002-NB150-57 VHH-Fc (Fc fusion)
chain: QVQLVESGGGLVQAGDSLRLSCAVTGRAYSRSDMGWFRQAPGKEREIVAVITFGGGTDYADSVKGRFTISSEDTKNTLYLQMNSLQPEDTAVYYCAAGFRGSRWSTAARRKEDDYAFWGQGTQVTVSS[human IgG1 Fc with changes cut from this listing]
notes: VHH cloned into vector BI3.4-huIgG1 (hinge and human IgG1 Fc), made in HEK293E; also called 5002-NB150-57
B11: S002-NB150-42 VHH-Fc (Fc fusion)
chain: QVQLVESGGGLVQAGDSLKLSCLASGITFSSYYMSWFRQAPGKEREFVAGVGRSGAPSHHADSVKGRFTISRDNAKSAVYLQMNSLQPEDTAVYFCAAKWMAASTTVADYWGQGTQVTVSS[human IgG1 Fc with changes cut from this listing]
notes: VHH cloned into vector BI3.4-huIgG1 (hinge and human IgG1 Fc), made in HEK293E; also called 5002-NB150-42
B12: S002-NB150-159n VHH-Fc (Fc fusion)
chain: QVQLVESGGGLVQAGDSLRLACEASGRTATISTMGWFRQAPGKEREFVGRIDWSAESTYIVDSVKGRFIISRDNAKNAGYLQMNSLKPVDTAVYYCAAIVVRERSYKYWGQGTQVTVSS[human IgG1 Fc with changes cut from this listing]
notes: VHH cloned into vector BI3.4-huIgG1 (hinge and human IgG1 Fc), made in HEK293E; also called S002-NB150-15911
B13: S002-NB151-64 VHH-Fc (Fc fusion)
chain: QVQLVESGGGLVQPGGSLTLSCAASGFDFSFYTMTWVRQAQGKGLEWVSTISTGGGGSNYADSVKGRFTISRDNAKKTLYLQMTSLKPEDTAVYYCASHRRGYMFVSSRKNEYDYWGRGTQVTVSS[human IgG1 Fc with changes cut from this listing]
notes: VHH cloned into vector BI3.4-huIgG1 (hinge and human IgG1 Fc), made in HEK293E; also called 5002-NB151-64
B14: S002-NB151-92 VHH-Fc (Fc fusion)
chain: QVQLVESGGGLVQSGGSLRLSCAASGFTFSDYTMNWVRQAPGKGLEWVSEISSGGHFKSNADSVKDRFTISRDNAKNTLYLQMNSLKPEDTAVYFCAKCPRPSVYCRDYESTSLYRGQGTQVTVSS[human IgG1 Fc with changes cut from this listing]
notes: VHH cloned into vector BI3.4-huIgG1 (hinge and human IgG1 Fc), made in HEK293E; also called 5002-NB151-92
B15: S002-NB151-36 VHH-Fc (Fc fusion)
chain: QVQLVESGGGLVQAGGSLRLSCAASGLTFSYYGMGWFRQAPGKEREFVAAINWSGTSTYYADSVKDRFTVSRDNAKNTAYLHMNNLKPEDTAVYYCAARKYSSSQAMGLPNDIDYWGQGTQVTVSS[human IgG1 Fc with changes cut from this listing]
notes: VHH cloned into vector BI3.4-huIgG1 (hinge and human IgG1 Fc), made in HEK293E; also called 5002-NB151-36

For the first test, the target named is T1, murine CD22-ECD-His (mouse, UniProt P35329 22-708).
T1 construct: extracellular domain; Bought; also called mouse CD22; murine CD22 protein
T1 sequence (looked up): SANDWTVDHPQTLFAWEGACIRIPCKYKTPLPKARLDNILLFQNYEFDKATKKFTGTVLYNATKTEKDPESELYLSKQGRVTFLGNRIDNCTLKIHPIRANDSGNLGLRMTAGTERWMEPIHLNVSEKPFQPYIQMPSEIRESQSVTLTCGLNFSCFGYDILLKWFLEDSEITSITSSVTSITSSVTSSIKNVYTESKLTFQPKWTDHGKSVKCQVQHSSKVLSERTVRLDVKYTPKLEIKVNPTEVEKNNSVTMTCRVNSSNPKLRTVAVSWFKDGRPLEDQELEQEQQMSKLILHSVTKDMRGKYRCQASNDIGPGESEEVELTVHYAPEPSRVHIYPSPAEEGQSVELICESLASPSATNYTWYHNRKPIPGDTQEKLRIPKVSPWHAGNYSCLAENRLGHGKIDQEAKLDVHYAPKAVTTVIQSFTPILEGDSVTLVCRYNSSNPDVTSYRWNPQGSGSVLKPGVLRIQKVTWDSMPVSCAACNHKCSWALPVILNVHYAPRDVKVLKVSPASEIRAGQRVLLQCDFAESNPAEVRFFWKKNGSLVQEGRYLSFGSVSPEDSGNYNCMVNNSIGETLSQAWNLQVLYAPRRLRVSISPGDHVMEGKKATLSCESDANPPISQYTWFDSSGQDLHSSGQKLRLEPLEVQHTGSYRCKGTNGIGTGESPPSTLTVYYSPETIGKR
In words: ELISA on coated murine CD22-ECD-His, upper panel. As to the method: (§1) The plate was sealed with plastic film and incubated overnight at 4° C., the plate was washed 2 times with PBS the next day, and then a blocking solution [PBS+2% (w/w) BSA] was added for blocking at room temperature for 2 hours. […] After incubation at 37° C. for 2 hours, the plate was washed 3 times with PBS. HRP (horseradish peroxidase)-labeled secondary antibody (purchased from Sigma, catalog number: A0170) was added, and incubated at 37° C. for 2 hours, and the plate was washed 5 times with PBS. TMB substrate was added at 50 μl/well, and incubated at room temperature for 30 minutes, then a stop solution (1.0 N HCl) was added at 50 μl/well.
(In general: ELISA stands for enzyme-linked immunosorbent assay.)
For the molecule B1, the binding result is on record as “no binding (tested: 100 nM)”.
Same read-out and setting: the value for B2 was “no binding (tested: 100 nM)”; that for B3 was “no binding (tested: 100 nM)”.
The same measure, in the same setting: the value for B4 was “no binding (tested: 100 nM)”; that for B5 was “no binding (tested: 100 nM)”; that for B6 was “no binding (tested: 100 nM)”.
The same measure, in the same setting: the same measure for B7: “no binding (tested: 100 nM)”.
For the molecule B8, the binding result was “no binding (tested: 100 nM)”.

Another test concerns the target T2, human CD22 domain5-7-His (human, UniProt P20273 414-687).
T2 construct: Proximal end of membrane fragment; also called hCD22 domain5-7-His; not shown: His tag
T2 sequence: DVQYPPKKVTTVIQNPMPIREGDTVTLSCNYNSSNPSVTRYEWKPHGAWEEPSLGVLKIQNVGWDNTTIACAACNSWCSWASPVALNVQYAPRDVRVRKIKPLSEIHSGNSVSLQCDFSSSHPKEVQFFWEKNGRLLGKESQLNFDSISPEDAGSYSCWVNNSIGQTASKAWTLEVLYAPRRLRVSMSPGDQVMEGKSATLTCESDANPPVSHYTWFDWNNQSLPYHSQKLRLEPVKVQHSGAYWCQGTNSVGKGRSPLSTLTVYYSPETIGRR
The experiment in a line: ELISA on coated human CD22 domain5-7-His, top panel.
Turning to B1, the binding result is “no binding (tested: 100 nM)”.
Still for that read-out and setting: the value for B2 was “no binding (tested: 100 nM)”; that for B3 was “no binding (tested: 100 nM)”.
Same read-out and setting: the value for B6 was “no binding (tested: 100 nM)”; that for B8 was “no binding (tested: 100 nM)”.

A further test has as its target T2, human CD22 domain5-7-His. The experiment in a line: ELISA on coated human CD22 domain5-7-His, middle panel.
With B4, the binding result is listed as “no binding (tested: 100 nM)”.
The same measure, in the same setting: the same measure for B5: “no binding (tested: 100 nM)”.
By EC50 (read off the curve) is commonly meant the concentration at which the effect is half-maximal. Read a low EC50 (read off the curve) as a more potent agent. For B9, the “EC50 (read off the curve)” value is about 0.1 nM.
Turning to B10, the binding result is recorded as “no binding (tested: 100 nM)”.
Turning to B7, the binding result is “no binding (tested: 100 nM)”.
The same measure, in the same setting: the same measure for B11: “no binding (tested: 100 nM)”.

The next test addresses T1, murine CD22-ECD-His. In words: ELISA on coated murine CD22-ECD-His, lower panel. As for the experimental part:
as §1
Take B12: the binding result was “no binding (tested: 100 nM)”.
Still for that read-out and setting: the same measure for B13: “no binding (tested: 100 nM)”; for B9: “no binding (tested: 100 nM)”.
Same read-out and setting: the same measure for B10: “no binding (tested: 100 nM)”; for B14: “no binding (tested: 100 nM)”.
The same measure, in the same setting: the value for B15 was “no binding (tested: 100 nM)”.
Take B11: the binding result was “no binding (tested: 100 nM)”.

The target in a further test is T2, human CD22 domain5-7-His. In words: ELISA on coated human CD22 domain5-7-His, bottom panel.
As to B12, the “EC50 (read off the curve)” value was about 0.4 nM.
Consider B13, for which the binding result is “no binding (tested: 100 nM)”.
Turning to B14, the “EC50 (read off the curve)” value was about 0.3 nM.
On to B15, for which the binding result was “no binding (tested: 100 nM)”.
